Data reported in patent US20250121006A1, “THERAPEUTIC COMBINATIONS COMPRISING ANTI-STEAP2 CHIMERIC ANTIGEN RECEPTOR T CELLS” (AstraZeneca AB, priority 2023, published 2025).

Tests used:
[1] = test system: STEAP2 in LNCAP cells; experiment: STEAP2 receptor density and antigen binding capacity (ABC) after continuous enzalutamide exposure; assay type: cell-based
Experimental: STEAP2 receptor density and antigen binding capacity (ABC) after continuous enzalutamide exposure was also measured in LNCAP cells over a 28 day period.

[2] = test system: 22RV1 cells; experiment: Prostate cell line proliferation, 22RV1
[3] = test system: LNCAP cells; experiment: CAR T cell killing capacity in co-culture with LNCAP cells; assay type: cell-based; conditions: 5 uM vs DMSO; co-cultured with LNCAP cells; with or without pre-treatment
Experimental: (§1) LNCAP cells were pre-treated with either 0 or 5 uM of abiraterone or enzalutamide, or DMSO, for 24 hours in complete media. Then, AZD0754 or untransduced T cells were added with or without abiraterone or enzalutamide at a concentration of 5 uM. IFNγ release was also measured by harvesting the cell culture supernatant following 24 hours after CAR T cell treatment. […] Cells were subsequently harvested and RNA extracted for qPCR analysis.
(§2) 5 uM abiraterone treatment was compared to DMSO, and CAR T cells were compared to untransduced T cells (UT), wherein the LNCAP and/or CAR T or UT cells were pre-treated (PreTx) with abiraterone.

[4] = test system: LNCAP cells; experiment: Prostate cell line proliferation, LNCAP; conditions: compared to 22RV1 cells
[5] = test system: STEAP2 in LNCAP cells; conditions: 24, 48, and 72 hours post-treatment
[6] = test system: IFNγ; experiment: IFNγ release by CAR T cells in co-culture with LNCAP cells; assay type: cell-based; conditions: 5 uM vs DMSO; co-cultured with LNCAP cells; supernatant 24 hours after CAR T cell treatment
Experimental: as §1, §2

[7] = test system: prostate-specific antigen (PSA), LuCaP70 tumors; experiment: Serum PSA by ELISA, LuCaP70 PDX model; conditions: Day 21, all dosages (10, 30, 50, 80 mg/kg)
[8] = test system: AZD0754 CAR-T cells; experiment: CAR-T cells in blood at day 42, combination study; conditions: day 42 blood; enzalutamide 10 mg/kg with AZD0754
[9] = test system: Androgen receptor; experiment: qPCR of downstream androgen receptor target expression in LNCAP cells; assay type: cell-based; conditions: 5 uM, 72 hours, vs media, DMSO
Experimental: as §1

| Compound | STEAP2 levels after enzalutamide removal ([1]; after day 21, through day 28) | STEAP2 receptor density (mean fluorescence intensity, ABC) ([1]; continuous enzalutamide treatment) | 22RV1 prostate cell line proliferation [2] | Effect on CAR T killing capacity [3] | LNCAP prostate cell line proliferation [4] | STEAP2 expression (flow cytometry) [5] | Effect on IFNγ release by the CAR T cells [6] | Serum PSA [7] | Effect on CAR T cell viability [8] | Effect on CAR T cell viability and phenotype [8] | Androgen receptor inhibition by qPCR of downstream target expression [9] |
| --- | --- | --- | --- | --- | --- | --- | --- | --- | --- | --- | --- |
| CNC(=O)c1ccc(N2C(=S)N(c3ccc(C#N)c(C(F)(F)F)c3)C(=O)C2(C)C)cc1F [enzalutamide] | STEAP2 levels return to baseline level | increases STEAP2 receptor density levels up to 21 days | dose dependent manner | did not appear to have an effect | more sensitive to androgen receptor antagonist treatment compared to 22RV1 cells | No effect on STEAP2 expression | did not appear to have an effect | significant decreased in serum PSA | not having a negative effect on CAR T cell viability | not having a negative effect on CAR T cell viability and phenotype | – |
| abiraterone | – | – | dose dependent manner | did not appear to have an effect | more sensitive to androgen receptor antagonist treatment compared to 22RV1 cells | No effect on STEAP2 expression | did not appear to have an effect | – | – | – | validated |
